# Reference: publication PMC4336329 (PLoS ONE, 2015)
# About 2,200 (0.71%) of roughly 310,000 compounds showed an effect of 50% or more. Effects have a minus sign here. This is one part of the list.
# Target: human ether-à-go-go-related gene (hERG) potassium channel (human, UniProt Q12809)
# Assay: primary screen, population patch clamp on CHO cells stably expressing hERG
# Sequence of human ether-à-go-go-related gene (hERG) potassium channel (Q12809 whole entry, looked up): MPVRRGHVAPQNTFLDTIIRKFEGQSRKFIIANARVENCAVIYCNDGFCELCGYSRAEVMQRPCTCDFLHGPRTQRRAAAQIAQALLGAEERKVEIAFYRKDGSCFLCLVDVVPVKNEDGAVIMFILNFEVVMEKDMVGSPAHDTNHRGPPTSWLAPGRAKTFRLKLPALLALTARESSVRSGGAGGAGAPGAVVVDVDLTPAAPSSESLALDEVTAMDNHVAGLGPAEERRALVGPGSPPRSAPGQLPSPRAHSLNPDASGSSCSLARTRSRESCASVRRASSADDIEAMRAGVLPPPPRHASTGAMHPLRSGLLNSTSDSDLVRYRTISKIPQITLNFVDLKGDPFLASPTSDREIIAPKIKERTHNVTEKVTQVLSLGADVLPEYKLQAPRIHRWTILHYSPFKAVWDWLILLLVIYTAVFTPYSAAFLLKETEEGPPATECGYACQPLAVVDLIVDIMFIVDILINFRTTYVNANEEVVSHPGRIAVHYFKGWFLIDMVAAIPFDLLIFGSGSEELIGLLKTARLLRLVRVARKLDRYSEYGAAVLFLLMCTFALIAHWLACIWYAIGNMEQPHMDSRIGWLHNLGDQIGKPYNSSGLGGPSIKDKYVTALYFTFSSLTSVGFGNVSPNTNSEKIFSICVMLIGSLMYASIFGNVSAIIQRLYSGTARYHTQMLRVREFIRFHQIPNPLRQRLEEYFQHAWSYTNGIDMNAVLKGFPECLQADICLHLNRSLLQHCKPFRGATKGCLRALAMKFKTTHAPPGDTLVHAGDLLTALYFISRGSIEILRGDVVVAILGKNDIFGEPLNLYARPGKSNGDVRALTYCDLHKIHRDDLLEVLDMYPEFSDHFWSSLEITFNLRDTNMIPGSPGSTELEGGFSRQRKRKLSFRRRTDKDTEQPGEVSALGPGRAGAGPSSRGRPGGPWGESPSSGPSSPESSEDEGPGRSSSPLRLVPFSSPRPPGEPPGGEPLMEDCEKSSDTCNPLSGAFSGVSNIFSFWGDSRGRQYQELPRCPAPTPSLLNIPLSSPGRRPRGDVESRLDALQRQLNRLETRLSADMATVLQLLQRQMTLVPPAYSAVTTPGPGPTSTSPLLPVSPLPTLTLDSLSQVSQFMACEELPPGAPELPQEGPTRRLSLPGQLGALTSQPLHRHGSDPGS
row,Structure (SMILES),"hERG current change (%, negative = inhibition) at 1uM [%]"
1,Cc1ccc(NC(=O)C2COc3ccccc3O2)c(C)c1 (stereo not drawn),13.6
2,CCC(=O)Nc1cccc(C(=O)c2ccc(C)c(C)c2)c1,7.94
3,CCc1ccc(CNC(=O)c2ccc(OC)c(OC3CCN(C(C)C)CC3)c2)nc1,11.7
4,COC(=O)CCCC1=CC2=C(c3ccccc3)C(=O)C(C)(OC(=O)C3CCCC3)C(=O)C2=CN1CCc1c[nH]c2ccccc12 (stereo not drawn),8.22
5,COCCCn1c(-c2ccccc2Cl)n[nH]c1=S,18.5
6,COc1ccccc1NC(=O)NC1CC(=O)N(c2ccc3c(c2)OCCO3)C1 (stereo not drawn),0.982
7,Cc1ccccc1CC1(CO)CCCN(C(=O)c2cc(Cl)ccc2F)C1 (stereo not drawn),14.5
8,CN(C)c1ccc(/C=N\NC(=O)c2ccc(Cn3cc(Cl)cn3)cc2)cc1,6.64
9,COc1cc(OC)c(NS(=O)(=O)c2c(C)[nH]c(=O)[nH]c2=O)cc1Cl,12.7
10,COc1ccccc1NC(=O)COC(=O)COc1ccccc1F,15.6
11,COc1ccc(C2=NN(C(=O)c3ccncc3)C(c3ccccc3O)C2)cc1 (stereo not drawn),8.12
12,Cc1ccc(CNC(=O)c2ccc(Cn3cc(-c4ccc(C)cc4)nc3-c3ccncc3)cc2)cc1,9.38
13,Cc1ccc(S(=O)(=O)Nc2ccnc3ccccc23)cc1,9.35
14,CCCCn1c(N)c(Sc2ccc(Cl)cc2)c(=O)[nH]c1=O,-5.13
15,CCn1nc(NC(=O)C(C)(C)C)c2cc3cccc(C)c3nc21,5.4
16,COC(=O)[C@@]12CCCCN1[C@H](c1ccc(-c3ccc(OC)cc3)cc1)[C@H]1C(=O)N(C)C(=O)[C@H]12.O=C(O)C(F)(F)F,12.5
17,O=C(Nc1cccc2ccccc12)c1ccc([N+](=O)[O-])cc1,-0.953
18,Cn1cccc1Cc1nnc(SCC(=O)Nc2nc3ccccc3s2)n1CCc1ccccc1,13.8
19,Cc1cc(C)cc(N=C(NO)c2cccc([N+](=O)[O-])c2)c1,5.79
20,CC(C)c1ccc(NC(=O)c2ccc3snnc3c2)cc1,-1.54
21,CCN(CC)CCn1c2c(c(SCC(=O)Nc3nc4ccccc4s3)nc1=O)CCCC2,-10.4
22,O=C(c1cccc([N+](=O)[O-])c1)N1CCN(S(=O)(=O)N2CCCCC2)CC1,3.45
23,CS(=O)(=O)Nc1cccc(-c2cn3ccccc3n2)c1,5.39
24,Cc1ccc(C2CC(C(F)(F)F)n3nc(C(=O)NCc4ccco4)cc3N2)cc1 (stereo not drawn),22.4
25,COC(=O)c1c(C)[nH]c(C(=O)OCC(=O)NCC(C)C)c1C,14.4
26,Brc1ccc(-c2csc(Nc3nc(-c4ccc(Br)cc4)cs3)n2)cc1,13.4
27,Cc1cnc(NC(=O)CSc2ccccc2)s1,-2.02

row,Structure (SMILES),"hERG current change (%, negative = inhibition) at 1uM [%]"
1,C=CCn1c(CNc2ccc(C)cc2)nnc1SCC(=O)N/N=C/c1ccc(O)cc1,-3.22
2,COc1cccc(Oc2coc3c(CN4CCOCC4)c(O)ccc3c2=O)c1,0.344
3,Cc1oc(-c2ccccc2F)nc1CS(=O)(=O)CC(=O)N1CCN(Cc2ccccc2)CC1,9.36
4,O=C(Nc1ccc2c(c1)C(=O)N(c1ccccc1)C2=O)C1CCCO1 (stereo not drawn),1.3
5,CCO[C@@H]1OC(C(=O)Nc2ccccc2)=C[C@H](C2CC2)[C@H]1CCCO,9.44
6,Cc1nc2ccc(NC(=O)CCC3CCCC3)cc2s1,9.44
7,O=C(Cc1ccccc1)Nc1ccc2[nH]ncc2c1,18.4
8,Cc1cccc(OCC(=O)NC2CC(C)(C)NC(C)(C)C2)c1,7.88
9,Cc1ccc(NC(=O)CN2C(=O)S/C(=C\c3cccn3C)C2=O)cc1,12.5
10,COc1ccc(-c2ccc3c(N)c(C(=O)c4cccc(OC)c4)sc3n2)cc1,-0.964
11,COc1cccc(-c2nc(CS(=O)(=O)CC(=O)NCc3ccc4c(c3)OCO4)c(C)o2)c1,-3.34
12,COc1ccccc1NC(=O)COc1ccc(/C=N/NC(=O)c2cccnc2)cc1,-0.257
13,COCCNC(=O)C1CCCN(c2nn3c(=O)cc(C)nc3s2)C1 (stereo not drawn),5.77
14,O=C(O)/C(=C\c1ccco1)NC(=O)c1ccccc1,11
15,CCC1(C)CC2(CCCN(CCC(=O)c3ccccc3)C2)CCO1.Cl (stereo not drawn),7.55
16,COc1ccc(OC)c(NC(=O)CCNS(=O)(=O)c2cc(Br)cnc2N)c1,7.7
17,CC(C)=CCC12Oc3cc(O)ccc3C1(O)Oc1cc(O)c([C@H]3C=C(C)CC(c4ccc(O)cc4O)[C@H]3C(=O)c3ccc(O)cc3O)c(O)c1C2=O (stereo partly drawn),-0.572
18,Cc1ccc(C)n1-c1ccccc1N1CCCCC1,16.4
19,O=C(c1csc2c1CCCCC2)N1CCC2(CC1)OCCO2,10.9
20,COc1ccc(CN([C@H](C)CO)S(=O)(=O)N(Cc2ccccc2)[C@H](CO)C(C)C)cc1,7.92
21,O=C(CN1C(=O)NC2(CCCC2)C1=O)Nc1ccc(C(F)(F)F)cc1,9.94
22,O=S(=O)(Nc1ccncc1)c1cc(Cl)ccc1Cl,15.2
23,COc1ccc2oc(=O)c(-c3ccccc3C(=O)N3CCOCC3)cc2c1,10.7
24,COc1ccc(-n2nc(C(=O)NCC(=O)Nc3cc(Cl)c(OC)cc3OC)c3ccccc3c2=O)cc1,6.43
25,COc1ccc(CCC(=O)Nc2ccc(Cn3ccnc3)cc2)cc1,10.4
26,COC(=O)c1cc(S(=O)(=O)n2nc(C)cc2C)c(Cl)cc1Cl,11.9
27,CC(C)C[C@H]1CN=C(Nc2ccccc2)N1CC1CCCCCC1,-16.8
